# Results are given in words; binding and its absence hold for the method and conditions named. Binding seen in cells or lysates may run through a third protein. Some entries that bind do so weakly or less than the wild type. For some assays here: Where a sequence is shown, tags or fusion partners need not be part of it.
# Protein sequences, listed by entry. Tags and fused reporters are not part of them.
# UniProt O15379: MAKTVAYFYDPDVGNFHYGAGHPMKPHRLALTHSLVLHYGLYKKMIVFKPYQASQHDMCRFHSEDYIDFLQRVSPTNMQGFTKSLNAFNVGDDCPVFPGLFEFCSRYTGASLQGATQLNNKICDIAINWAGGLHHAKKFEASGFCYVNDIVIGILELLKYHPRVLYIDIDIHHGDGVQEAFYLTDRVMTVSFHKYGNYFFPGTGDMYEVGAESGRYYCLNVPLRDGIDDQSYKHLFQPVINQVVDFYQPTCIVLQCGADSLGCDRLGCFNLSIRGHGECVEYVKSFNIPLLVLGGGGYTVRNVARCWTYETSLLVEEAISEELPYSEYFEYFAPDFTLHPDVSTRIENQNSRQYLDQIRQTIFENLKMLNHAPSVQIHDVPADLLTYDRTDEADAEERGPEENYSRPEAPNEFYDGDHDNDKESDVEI
# UniProt Q13547: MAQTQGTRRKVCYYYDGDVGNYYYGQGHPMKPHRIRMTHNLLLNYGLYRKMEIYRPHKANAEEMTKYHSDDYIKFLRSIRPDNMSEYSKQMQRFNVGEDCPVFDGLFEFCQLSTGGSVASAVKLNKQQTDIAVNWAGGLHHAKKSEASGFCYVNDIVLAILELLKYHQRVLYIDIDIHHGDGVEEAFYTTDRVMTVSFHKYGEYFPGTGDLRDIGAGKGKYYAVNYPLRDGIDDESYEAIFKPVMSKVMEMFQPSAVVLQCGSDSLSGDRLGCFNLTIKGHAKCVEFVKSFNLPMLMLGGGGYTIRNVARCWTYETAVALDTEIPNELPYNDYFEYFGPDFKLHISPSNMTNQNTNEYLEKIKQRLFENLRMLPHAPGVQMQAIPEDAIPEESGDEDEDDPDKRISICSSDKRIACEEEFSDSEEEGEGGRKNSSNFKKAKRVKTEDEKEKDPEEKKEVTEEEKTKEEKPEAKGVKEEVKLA
# UniProt P05627: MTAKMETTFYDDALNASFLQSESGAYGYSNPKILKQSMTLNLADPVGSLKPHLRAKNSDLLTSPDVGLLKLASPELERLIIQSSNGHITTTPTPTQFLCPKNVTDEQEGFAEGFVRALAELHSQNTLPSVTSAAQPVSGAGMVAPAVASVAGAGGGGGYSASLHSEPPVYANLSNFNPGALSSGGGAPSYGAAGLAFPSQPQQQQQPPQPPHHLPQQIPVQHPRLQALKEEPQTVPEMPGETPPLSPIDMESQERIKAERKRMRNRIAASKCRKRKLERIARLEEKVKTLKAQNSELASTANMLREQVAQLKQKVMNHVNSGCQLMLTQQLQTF
# UniProt O75376: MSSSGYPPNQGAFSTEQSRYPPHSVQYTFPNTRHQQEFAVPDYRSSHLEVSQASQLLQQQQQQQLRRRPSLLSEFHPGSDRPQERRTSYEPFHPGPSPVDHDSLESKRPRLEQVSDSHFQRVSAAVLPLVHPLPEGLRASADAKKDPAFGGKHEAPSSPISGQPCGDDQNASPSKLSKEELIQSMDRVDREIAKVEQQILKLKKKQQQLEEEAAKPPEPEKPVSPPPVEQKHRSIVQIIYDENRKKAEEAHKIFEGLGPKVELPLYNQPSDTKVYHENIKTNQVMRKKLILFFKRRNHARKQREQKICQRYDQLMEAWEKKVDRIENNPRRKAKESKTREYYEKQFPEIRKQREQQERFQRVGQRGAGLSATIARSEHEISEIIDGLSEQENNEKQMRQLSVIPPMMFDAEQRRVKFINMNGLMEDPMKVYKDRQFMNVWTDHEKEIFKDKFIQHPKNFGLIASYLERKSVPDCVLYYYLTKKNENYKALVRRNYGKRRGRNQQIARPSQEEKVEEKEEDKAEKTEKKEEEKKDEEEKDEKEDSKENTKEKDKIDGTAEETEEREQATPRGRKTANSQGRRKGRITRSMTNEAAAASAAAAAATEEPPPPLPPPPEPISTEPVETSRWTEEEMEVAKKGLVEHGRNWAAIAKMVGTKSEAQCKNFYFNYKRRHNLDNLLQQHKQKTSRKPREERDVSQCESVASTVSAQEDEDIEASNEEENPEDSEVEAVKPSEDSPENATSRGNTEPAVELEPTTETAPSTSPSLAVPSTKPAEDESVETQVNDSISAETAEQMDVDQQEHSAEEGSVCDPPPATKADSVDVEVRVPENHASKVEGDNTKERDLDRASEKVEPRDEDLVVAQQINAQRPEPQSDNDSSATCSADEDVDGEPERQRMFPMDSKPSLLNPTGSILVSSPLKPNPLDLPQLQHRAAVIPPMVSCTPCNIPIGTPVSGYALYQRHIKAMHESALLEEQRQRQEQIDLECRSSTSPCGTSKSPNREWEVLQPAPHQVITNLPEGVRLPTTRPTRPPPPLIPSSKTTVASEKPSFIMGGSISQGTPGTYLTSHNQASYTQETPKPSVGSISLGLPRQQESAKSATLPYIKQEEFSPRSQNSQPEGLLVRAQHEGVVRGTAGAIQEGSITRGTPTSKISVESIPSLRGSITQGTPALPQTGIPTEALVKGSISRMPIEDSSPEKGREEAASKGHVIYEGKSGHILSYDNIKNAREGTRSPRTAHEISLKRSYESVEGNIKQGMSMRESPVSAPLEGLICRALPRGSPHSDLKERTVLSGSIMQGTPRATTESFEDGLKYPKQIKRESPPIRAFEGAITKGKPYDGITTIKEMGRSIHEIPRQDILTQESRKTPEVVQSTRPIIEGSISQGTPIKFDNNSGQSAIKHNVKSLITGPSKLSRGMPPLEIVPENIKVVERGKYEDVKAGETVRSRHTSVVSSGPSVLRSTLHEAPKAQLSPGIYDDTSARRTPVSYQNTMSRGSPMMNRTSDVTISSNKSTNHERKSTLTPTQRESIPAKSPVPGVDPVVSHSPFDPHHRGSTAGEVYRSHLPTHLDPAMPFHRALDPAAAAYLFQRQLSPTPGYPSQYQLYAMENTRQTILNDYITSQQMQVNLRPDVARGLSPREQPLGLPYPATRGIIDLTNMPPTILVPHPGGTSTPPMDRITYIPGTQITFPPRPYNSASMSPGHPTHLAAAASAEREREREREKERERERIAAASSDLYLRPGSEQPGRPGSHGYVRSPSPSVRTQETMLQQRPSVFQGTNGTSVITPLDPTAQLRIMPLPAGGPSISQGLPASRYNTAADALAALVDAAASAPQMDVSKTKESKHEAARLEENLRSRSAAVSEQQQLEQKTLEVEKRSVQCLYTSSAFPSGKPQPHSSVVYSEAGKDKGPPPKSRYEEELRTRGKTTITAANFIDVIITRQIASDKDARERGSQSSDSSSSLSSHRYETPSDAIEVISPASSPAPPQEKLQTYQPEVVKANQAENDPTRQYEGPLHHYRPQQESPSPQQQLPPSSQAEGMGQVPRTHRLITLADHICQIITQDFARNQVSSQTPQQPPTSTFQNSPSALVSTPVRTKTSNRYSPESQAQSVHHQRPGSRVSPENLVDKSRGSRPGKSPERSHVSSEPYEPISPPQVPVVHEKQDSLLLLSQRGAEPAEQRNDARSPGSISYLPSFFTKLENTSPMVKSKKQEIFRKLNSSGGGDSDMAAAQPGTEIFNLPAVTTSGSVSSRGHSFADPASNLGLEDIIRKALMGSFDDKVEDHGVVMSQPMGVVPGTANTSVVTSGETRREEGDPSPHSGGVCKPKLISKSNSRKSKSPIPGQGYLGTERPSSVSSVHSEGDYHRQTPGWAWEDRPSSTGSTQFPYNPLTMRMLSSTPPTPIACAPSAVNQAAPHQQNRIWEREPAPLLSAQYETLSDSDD
# UniProt P05412: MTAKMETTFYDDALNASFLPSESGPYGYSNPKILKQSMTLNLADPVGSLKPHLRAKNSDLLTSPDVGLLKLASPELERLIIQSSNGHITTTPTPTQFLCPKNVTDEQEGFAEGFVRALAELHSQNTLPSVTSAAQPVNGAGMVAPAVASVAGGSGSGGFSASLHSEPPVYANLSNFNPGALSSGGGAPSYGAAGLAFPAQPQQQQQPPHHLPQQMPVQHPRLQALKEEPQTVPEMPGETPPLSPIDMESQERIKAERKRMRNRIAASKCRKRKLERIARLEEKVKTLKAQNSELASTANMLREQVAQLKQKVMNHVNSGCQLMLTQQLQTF
# UniProt P35222: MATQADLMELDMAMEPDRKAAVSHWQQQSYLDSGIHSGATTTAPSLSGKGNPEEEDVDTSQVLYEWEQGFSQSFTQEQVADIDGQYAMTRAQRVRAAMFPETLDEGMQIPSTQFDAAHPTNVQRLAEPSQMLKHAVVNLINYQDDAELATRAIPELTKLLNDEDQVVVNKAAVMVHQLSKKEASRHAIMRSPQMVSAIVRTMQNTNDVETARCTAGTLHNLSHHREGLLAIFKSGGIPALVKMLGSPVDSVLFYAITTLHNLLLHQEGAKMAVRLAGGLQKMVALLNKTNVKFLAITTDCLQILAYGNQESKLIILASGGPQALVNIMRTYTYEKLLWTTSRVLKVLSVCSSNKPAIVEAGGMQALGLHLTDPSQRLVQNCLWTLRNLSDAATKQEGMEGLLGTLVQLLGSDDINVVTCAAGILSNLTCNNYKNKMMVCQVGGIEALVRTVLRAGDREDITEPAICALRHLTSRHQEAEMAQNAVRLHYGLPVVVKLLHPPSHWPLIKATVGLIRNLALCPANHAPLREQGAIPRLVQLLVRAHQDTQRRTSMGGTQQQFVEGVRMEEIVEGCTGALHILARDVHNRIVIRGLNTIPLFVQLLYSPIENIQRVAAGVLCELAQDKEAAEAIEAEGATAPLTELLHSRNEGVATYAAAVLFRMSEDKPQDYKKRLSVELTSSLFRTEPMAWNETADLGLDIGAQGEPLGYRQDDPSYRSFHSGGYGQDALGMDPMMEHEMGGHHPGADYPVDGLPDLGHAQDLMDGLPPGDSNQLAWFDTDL
# Columns and labels:
# FLAG-tagged HDAC3 = FLAG-tagged HDAC3 (UniProt O15379); assay: co-IP; both partners transfected into HEK293 (one FLAG-tagged, one Myc-tagged), lysed after 48 h, anti-FLAG agarose beads 4 h at 4 °C, 4 washes with 150 mM NaCl and 0.5% Triton X-100, blot; in Fig. 5b cells also UV-treated to activate JNK
# FLAG-tagged HDAC1 = FLAG-tagged HDAC1 (UniProt Q13547); assay: as above
# FLAG-WDR13 [1] = target: FLAG-WDR13 (UniProt Q91V09); assay: as above
# FLAG-WDR13 [2] = target: FLAG-WDR13 (UniProt Q91V09); assay: co-IP; FLAG-WDR13 or its FLAG-tagged deletion constructs over-expressed in HEK293, immunocomplex purified with anti-FLAG agarose beads, blots for the partner proteins of the cells (endogenous in Fig. 6a)
# [3] = target: WDR13 (endogenous, mouse embryonic fibroblasts) (mouse (endogenous in MEFs)) (UniProt Q91V09); assay: co-IP; endogenous proteins from MEF lysate (50 mM Tris.HCl, 150 mM NaCl, 1 mM EDTA, 1% Triton X-100), pre-cleaned with Protein A, 4 μg anti-WDR13 antibody; Wdr13 knockout MEFs as control
# [4] = target: T1, FLAG-tagged WDR13 deletion construct FL-293 (UniProt Q91V09); assay: co-IP; FLAG-WDR13 or its FLAG-tagged deletion constructs over-expressed in HEK293, immunocomplex purified with anti-FLAG agarose beads, blots for the partner proteins of the cells (endogenous in Fig. 6a)
# T1 sequence: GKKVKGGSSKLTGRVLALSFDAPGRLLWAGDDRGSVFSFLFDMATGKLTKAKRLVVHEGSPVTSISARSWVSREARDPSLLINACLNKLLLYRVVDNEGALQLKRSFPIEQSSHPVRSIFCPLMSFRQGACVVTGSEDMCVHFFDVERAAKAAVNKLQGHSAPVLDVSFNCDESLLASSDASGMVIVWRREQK
# [5] = target: T2, FLAG-tagged WDR13 deletion construct FL-93 (UniProt Q91V09); assay: as above
# T2 sequence: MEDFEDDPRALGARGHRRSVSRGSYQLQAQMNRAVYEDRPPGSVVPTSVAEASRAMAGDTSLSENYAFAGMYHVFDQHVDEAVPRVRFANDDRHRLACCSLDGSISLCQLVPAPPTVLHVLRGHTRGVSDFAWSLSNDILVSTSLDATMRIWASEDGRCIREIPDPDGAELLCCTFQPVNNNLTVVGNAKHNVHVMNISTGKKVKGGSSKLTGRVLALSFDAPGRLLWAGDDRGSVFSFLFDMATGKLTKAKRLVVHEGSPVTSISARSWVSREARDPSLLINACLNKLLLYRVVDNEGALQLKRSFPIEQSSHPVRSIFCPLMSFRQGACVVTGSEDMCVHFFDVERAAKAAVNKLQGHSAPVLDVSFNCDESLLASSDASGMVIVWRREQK
# [6] = target: T3, FLAG-tagged WDR13 deletion construct FL-193 (UniProt Q91V09); assay: as above
# T3 sequence: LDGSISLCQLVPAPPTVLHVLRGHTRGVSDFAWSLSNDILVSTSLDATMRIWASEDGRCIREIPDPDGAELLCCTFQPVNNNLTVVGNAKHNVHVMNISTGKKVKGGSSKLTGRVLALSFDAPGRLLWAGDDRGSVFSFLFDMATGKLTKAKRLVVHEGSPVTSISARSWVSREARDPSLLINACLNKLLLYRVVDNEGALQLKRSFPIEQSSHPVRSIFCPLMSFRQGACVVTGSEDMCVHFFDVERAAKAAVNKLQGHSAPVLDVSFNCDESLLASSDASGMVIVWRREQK
# [7] = target: T4, FLAG-tagged WDR13 deletion construct FL-393 (UniProt Q91V09); assay: as above
# T4 sequence: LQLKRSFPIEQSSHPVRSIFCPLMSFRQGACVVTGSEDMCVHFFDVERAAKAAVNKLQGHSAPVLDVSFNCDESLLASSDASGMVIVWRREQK
substance,measurement,setting,value
Myc-WDR13 (from UniProt Q91V09 1-485),binding,FLAG-tagged HDAC3,binds
same,binding,FLAG-tagged HDAC1,binds
Myc-c-Jun (from UniProt P05627 1-334),binding,FLAG-WDR13 [1],binds
"NCoR1 (endogenous, HEK293) (from UniProt O75376 1-2440)",binding,FLAG-WDR13 [2],binds
"c-Jun (endogenous, HEK293) (from UniProt P05412 1-331)",binding,FLAG-WDR13 [2],binds
"c-Jun (endogenous, mouse embryonic fibroblasts) (from UniProt P05627 1-334)",binding,[3],binds
β-catenin (from UniProt P35222 1-781),binding,FLAG-WDR13 [2],no binding
same,binding,[4],no binding
same,binding,[5],no binding
same,binding,[6],no binding
same,binding,[7],no binding

# — paper PMC5320654
